In all, about 39,000 compounds went through this assay and about 220 (0.56%) showed activity. Some of the results follow.
system: Escherichia coli K-12 BW25113; assay: relative growth (OD600 normalised to plate interquartile mean) (fraction); higher = less growth inhibition, active = 0.2 or less; settings: 50 µM; LB; incubation time: overnight (16-24 h)
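Also: static incubation at 37 °C against the wild-type strain, values averaged over two biological replicates.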

Row | SMILES | relative growth
1 | COc1ccc(NC(=O)N(C)C[C@H]2OCCCC[C@H](C)Oc3ccc(NC(=O)c4ccccc4)cc3C(=O)N([C@H](C)CO)C[C@H]2C)cc1 | inactive: 1.01
2 | CCS(=O)(=O)Nc1ccc2c(c1)C(=O)N(C)[C@H]1CC[C@@H](CC(=O)NCCOC)O[C@H]1CO2 | inactive: 0.978
3 | CN1CCN(C(=O)C[C@H]2C[C@H]3c4cc(NC(=O)c5ccc6c(c5)OCO6)ccc4O[C@H]3[C@H](CO)O2)CC1 | inactive: 0.976
4 | CCOC(=O)CCCCCCCCCCCC[C@@H]1C=CCC1 | inactive: 1.04
5 | C[C@@H]1CCCCO[C@H](CN(C)Cc2ccc(C(F)(F)F)cc2)[C@@H](C)CN([C@@H](C)CO)C(=O)c2cc(N(C)C)ccc2O1 | inactive: 1
6 | CCOc1ccc(-n2c([C@@H](C)N(Cc3cccnc3)C(=O)Cc3ccc(OC(F)(F)F)cc3)nc3ncccc3c2=O)cc1 | inactive: 0.814
7 | Cc1ccc(S(=O)(=O)N(C)C[C@@H]2Oc3c(NC(=O)C4CCOCC4)cccc3C(=O)N([C@H](C)CO)C[C@@H]2C)cc1 | inactive: 1.02
8 | C[C@H](CO)N1C[C@H](C)[C@@H](CN(C)S(=O)(=O)c2cccs2)OCCCC[C@H](C)Oc2ccc(NS(=O)(=O)c3cn(C)cn3)cc2C1=O | inactive: 1.01
9 | CCCCCCCCCCC(C(=O)O)C1(C(=O)O)CCC(=O)O1 (configuration not stated) | inactive: 1.05
10 | COc1ccc(-c2cnc3c(c2)C(=O)N([C@@H](C)CO)C[C@@H](C)[C@H](CN(C)S(=O)(=O)c2ccc(OC)cc2)O3)cc1 | inactive: 1.03
11 | C[C@H](CO)N1C[C@H](C)[C@@H](CN(C)S(=O)(=O)c2ccc(F)cc2)Oc2ccc(NS(=O)(=O)c3cccs3)cc2C1=O | inactive: 1.02
12 | C[C@H]1CN([C@@H](C)CO)C(=O)Cc2cc(NC(=O)CCN3CCOCC3)ccc2O[C@@H]1CN(C)C(=O)Nc1ccccc1 | inactive: 0.983
13 | CC1=C(C(=O)OCCN(Cc2ccccc2)c2ccccc2)[C@H](c2cccc([N+](=O)[O-])c2)C(P2(=O)OCC(C)(C)CO2)=C(C)N1 | inactive: 1.01
14 | Cl.Clc1ccc2nsnc2c1NC1=NCCN1 | inactive: 0.952
15 | C[C@H]1CCCCO[C@@H](CN(C)Cc2ccc(C(=O)O)cc2)[C@@H](C)CN([C@@H](C)CO)C(=O)c2cc(NS(=O)(=O)c3ccc(F)cc3)ccc2O1 | inactive: 1.01
16 | COc1ccc(CN(C)C[C@@H]2Oc3ccc(NC(=O)Nc4ccc(C(F)(F)F)cc4)cc3C(=O)N([C@@H](C)CO)C[C@H]2C)cc1 | inactive: 0.945
17 | C[C@H](O)C#Cc1ccc2c(c1)O[C@@H](CN(C)C(=O)c1ccccc1)[C@@H](C)CN([C@H](C)CO)S2(=O)=O | inactive: 0.956

— the supplement of paper PMC9446081
